Screen size: about 310,000 compounds; about 14,000 (4.5%) showed an effect of 50% or more. The effect is printed as a negative number. This is one part of the list.
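Note: peak tail current of the secondary pulse compared with the same well before compound.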

In the assay the target is human ether-à-go-go-related gene (hERG) potassium channel (human, UniProt Q12809). The experiment in a line: primary screen, population patch clamp on CHO cells stably expressing hERG.
Sequence of human ether-à-go-go-related gene (hERG) potassium channel (Q12809 whole entry, looked up): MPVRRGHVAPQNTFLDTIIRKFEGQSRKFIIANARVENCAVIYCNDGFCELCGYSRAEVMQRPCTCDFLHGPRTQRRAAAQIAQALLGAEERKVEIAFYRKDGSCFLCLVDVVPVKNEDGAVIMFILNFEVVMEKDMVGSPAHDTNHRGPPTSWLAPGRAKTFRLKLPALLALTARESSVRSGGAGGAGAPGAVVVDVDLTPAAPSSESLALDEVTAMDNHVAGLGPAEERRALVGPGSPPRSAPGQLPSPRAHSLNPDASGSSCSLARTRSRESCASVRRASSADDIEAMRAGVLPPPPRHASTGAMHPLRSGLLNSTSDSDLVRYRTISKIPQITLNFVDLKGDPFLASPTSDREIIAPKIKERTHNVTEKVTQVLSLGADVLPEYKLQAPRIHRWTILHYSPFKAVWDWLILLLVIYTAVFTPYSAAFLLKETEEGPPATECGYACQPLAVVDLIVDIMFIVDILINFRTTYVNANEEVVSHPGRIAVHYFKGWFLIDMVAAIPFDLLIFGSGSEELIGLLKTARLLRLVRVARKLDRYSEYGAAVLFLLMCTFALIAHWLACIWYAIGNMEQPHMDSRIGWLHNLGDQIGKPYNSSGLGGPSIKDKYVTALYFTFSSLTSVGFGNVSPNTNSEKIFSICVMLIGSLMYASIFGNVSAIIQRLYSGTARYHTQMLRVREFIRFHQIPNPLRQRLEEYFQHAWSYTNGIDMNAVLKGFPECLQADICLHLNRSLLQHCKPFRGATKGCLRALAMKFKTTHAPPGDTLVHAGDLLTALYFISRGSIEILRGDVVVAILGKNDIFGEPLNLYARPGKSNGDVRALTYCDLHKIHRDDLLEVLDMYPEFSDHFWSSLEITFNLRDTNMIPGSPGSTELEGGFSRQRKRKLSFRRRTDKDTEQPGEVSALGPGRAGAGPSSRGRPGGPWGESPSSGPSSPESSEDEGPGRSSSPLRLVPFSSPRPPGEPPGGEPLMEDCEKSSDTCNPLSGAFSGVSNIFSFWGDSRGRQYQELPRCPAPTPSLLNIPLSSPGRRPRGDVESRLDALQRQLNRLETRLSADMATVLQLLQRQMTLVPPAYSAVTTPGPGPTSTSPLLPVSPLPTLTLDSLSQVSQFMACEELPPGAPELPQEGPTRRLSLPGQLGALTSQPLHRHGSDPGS
Regarding `Cc1cc(NC(=O)c2cc(-c3ccccn3)nc3ccccc23)no1`, the “hERG current change (%, negative = inhibition) at 10uM” value was -3.66%. The value for `CN1CCN(S(=O)(=O)c2ccc(Cl)s2)CC1` was 7.75%. The result for `O=C(COc1ccc(Nc2ccccc2)cc1)OCC(=O)N1CCCCC1` reads 12.6%. The value for `CSCCC1NC(=O)N(CC(=O)N2CCc3ccccc3C2)C1=O` (stereo not drawn) was -1.18%.

On to `O=C(Nc1cnn(Cc2ccc(Cl)cc2Cl)c1)c1noc2c1CCCC2`, for which the “hERG current change (%, negative = inhibition) at 10uM” value is given as 5.22%. On to `Cc1ccc(Cn2nc(C)c(NC(=O)c3noc4c3CCCCC4)c2C)cc1`, for which the “hERG current change (%, negative = inhibition) at 10uM” value was -25.1%. The value for `CCS(=O)(=O)Nc1cccc(-c2ccc3nnc(C)n3n2)c1` was 12.8%; that for `Cc1cc(S(=O)(=O)Nc2ccc3c(c2)n(C)c(=O)n3C)ccc1F` was -0.399%. The value for `CCOC(=O)CNC(=O)c1sc2nc(C)cc(C)c2c1N` was 15.4%; that for `COc1ccc(CCNC(=O)CSc2nnc(-c3ccccc3)c3ccccc23)cc1OC` was -20%; that for `COC(=O)N/N=C/c1cc(C)n(-c2ccc(Br)cc2)c1C` was -26.5%. The value for `O=C1CSC(c2ccccc2)N1CC12CC3CC(CC(O)(C3)C1)C2` (stereo not drawn) was -11.4%. Turning to `Cc1cnc(CN(C)C(=O)CC2C(=O)NCCN2Cc2cccc(F)c2F)[nH]1` (stereo not drawn), the “hERG current change (%, negative = inhibition) at 10uM” value amounted to 19.2%. The value for `CN(C(=O)CSc1nnc(-c2cccnc2)n1-c1ccccc1F)C1CCS(=O)(=O)C1` (stereo not drawn) was 11.7%. The value for `O=[N+]([O-])c1ccccc1S(=O)(=O)NCCSCc1ccco1` was -3.56%. The result for `O=C(NC(=S)Nc1ccccc1Br)C1CC1` reads 8.48%; that for `O=C(c1ccc(F)cc1)c1c[nH]c(C(=O)NCc2ccco2)c1`, -4.69%; that for `COc1ccc(C(=O)NNC(=O)COc2ccc(Cl)cc2)c(OC)c1`, 1.97%. On to `CC(CCc1ccccc1)NC(=O)c1cc2sccc2n1C` (stereo not drawn), for which the “hERG current change (%, negative = inhibition) at 10uM” value is -5.35%.

With `CC1=CC2=NC(=O)/C(=C\c3cccn3CCOc3cc(C)ccc3C)C(=N)N2O1`, the “hERG current change (%, negative = inhibition) at 10uM” value is on record as -6.02%. As for `O=C(Nc1nncs1)C1COc2ccccc2O1` (stereo not drawn), the “hERG current change (%, negative = inhibition) at 10uM” value is recorded as 19.9%. As to `COc1ccc(OC)c(S(=O)(=O)NCCC(C)C)c1`, the “hERG current change (%, negative = inhibition) at 10uM” value was 23.9%. The value for `Cc1c(C(=O)N2CCC[C@H]2CO)oc2c(F)cccc12` was 13.3%. The value for `CCN1C(=O)NC(=O)/C(=C\c2cn(CC(=O)O)c3ccccc23)C1=O` was 15.2%; that for `CS(=O)(=O)c1cnc(-c2ccccc2)nc1-c1ccc(Cl)c(Cl)c1` was 21.7%; that for `COC(=O)C1=C(c2ccc(F)cc2F)C[C@@H]2CC[C@H]1N2C(=O)N1CCC(O)CC1` was 2.97%. The result for `O=C(Nc1ccccc1-c1ccccc1)C12CC3CC(CC(C3)C1)C2` reads 2.1%; that for `CCCc1cc(-c2ccc3c(c2)COc2c4ccccc4nn2-3)on1`, -21.4%; that for `Fc1ccc(CSc2ncnc3scc(-c4ccccc4)c23)cc1`, 7.53%.

Regarding `O=C1NC(NS(=O)(=O)c2ccccc2)(C(F)(F)F)C(=O)N1c1cccc(Cl)c1` (stereo not drawn), the “hERG current change (%, negative = inhibition) at 10uM” value was 14.9%.

Consider `CC(=O)O[C@]1(C(C)=O)CC[C@H]2[C@@H]3C=C(Cl)C4=CC(=O)[C@@H]5C[C@@H]5[C@]4(C)[C@H]3CC[C@@]21C`, for which the “hERG current change (%, negative = inhibition) at 10uM” value is reported as 3.26%. The result for `Cc1ccc(S(=O)(=O)n2cc(C=O)c3ccccc32)cc1` reads -0.169%; that for `CCCc1cc(C(=O)NC2CCCN(Cc3ccccc3F)C2)no1` (stereo not drawn), -17.5%. `COc1ccc(Nc2nc(NCCN3CCOCC3)nc(Nc3ccc(OC)cc3)n2)cc1`: the “hERG current change (%, negative = inhibition) at 10uM” value is -78.2%. The value for `COc1ccc(/C=C(\C#N)C(=O)N=CN(C)C)cc1` was -0.225%; that for `CS(=O)(=O)Nc1ccc(C2=NN(C(=O)c3cccc(F)c3)C(c3cccs3)C2)cc1` (stereo not drawn) was -53.8%. `COCC(C)n1c(C)cc(C(=O)COC(=O)c2c(NC(C)=O)sc(C)c2C)c1C` (stereo not drawn): the “hERG current change (%, negative = inhibition) at 10uM” value is on record as 3.49%. The result for `Cc1ccc(CC(=O)Nc2ccc([N+](=O)[O-])cc2C)cc1` reads 0.803%. The result for `COc1ccc(-n2c(Cc3cccn3C)nnc2SCC(=O)Nc2cccc(NC(C)=O)c2)cc1` reads -16.7%; that for `CC(C)(C)c1ccc(OCc2ccc(C(=O)NN)o2)cc1`, 8.83%.

In the case of `CCN1c2ccccc2-c2nc3ccccc3n2C1c1cccs1` (stereo not drawn), the “hERG current change (%, negative = inhibition) at 10uM” value is -5.22%. The result for `CCOc1ccc(N2CC(C(=O)Nc3cccc(S(=O)(=O)N4CCCCC4)c3)CC2=O)cc1` (stereo not drawn) reads -5.13%; that for `CCCc1[nH]nc2c1C1(C(=O)N(CC)c3ccccc31)C(C#N)=C(N)O2` (stereo not drawn), -6.38%. The value for `CCOc1ccc(N2CC(C(=O)N3CCN(c4ccccn4)CC3)CC2=O)cc1` (stereo not drawn) was -59%. The value for `N#Cc1ccsc1NC(=O)C1CCN(C(=O)c2ccc(Cl)cc2)CC1` was -73.2%; that for `Cc1ccc(COC(=O)c2nn(C)c(=O)c3ccccc23)cc1` was -1.73%.

`O=C1CC(c2cccs2)Cc2nc(NCC3CCCO3)ncc21` (stereo not drawn): the “hERG current change (%, negative = inhibition) at 10uM” value is reported as -1.69%. The value for `COc1ccc(-c2nc(C#N)c(N3CCN(C(=O)c4ccco4)CC3)o2)cc1OC` was 0.504%; that for `COC(=O)C(Cc1ccc(O)cc1)NC(=O)CCOc1ccc(OC)cc1` (stereo not drawn) was -3.87%. For `O=C(CSc1cccc[n+]1[O-])c1cccs1`, the “hERG current change (%, negative = inhibition) at 10uM” value is 16.4%. The value for `Cc1ccc(Cl)c(OCC(=O)NC2CCN(Cc3ccccc3)CC2)c1` was -115%; that for `Cn1ccnc1C(O)(c1ccccc1)c1nccn1C` was 26.3%. The value for `Cc1ccc(-n2c(O)c(C=NCc3ccccn3)c3ccccc3c2=O)cc1C` was -11.5%; that for `CC(C)(C)OC(=O)NCCCC[C@H](NC(=O)c1nc[nH]c1C(=O)NCc1ccc(CNC(=O)OC(C)(C)C)cc1)C(=O)OC(C)(C)C` was -6.28%; that for `Cc1cc(F)c(F)c(C(=O)N2CCCCC2C)c1Cl` (stereo not drawn) was 1.73%. The result for `Cc1cccc2c1nc(-c1ccccc1)n1nnnc21` reads 1.91%; that for `COc1ccc(S(=O)(=O)N(C)c2ccc(C(=O)NCc3ccccn3)cc2)cc1OC`, 4.53%.

Take `COc1ccc(OC)c(/C=N/NC(=O)c2cc[n+](Cc3ccccc3)cc2)c1.[Cl-]`: the “hERG current change (%, negative = inhibition) at 10uM” value was 4.36%.

With `Cc1cccc(-n2c(SCC(=O)N3CCN(c4ccccn4)CC3)nnc2N2CCOCC2)c1`, the “hERG current change (%, negative = inhibition) at 10uM” value is -12.9%.

On to `Cc1nc2ccccc2c(=O)n1-c1cc(F)ccc1F`, for which the “hERG current change (%, negative = inhibition) at 10uM” value is listed as 8.31%. The value for `CCOC(=O)COc1nc(-c2ccco2)cc(-c2ccco2)c1C#N` was 7.92%; that for `Cc1nnc(-c2cccc(Br)c2)c2cn(-c3ccc(Br)cc3)nc12` was -25%; that for `CC1CCN(S(=O)(=O)c2cccc(S(=O)(=O)N3CCOCC3)c2)CC1` was -30.2%. The result for `Cc1ccc(-c2nn(-c3ccccc3)cc2/C=N/NC(=O)c2ccc(Br)o2)cc1` reads 5.59%.

Consider `Cc1ccc(N2C(=O)c3ccccc3NC2C(C)Cc2ccc3c(c2)OCO3)cc1` (stereo not drawn), for which the “hERG current change (%, negative = inhibition) at 10uM” value came out at 7.33%. On to `CCCCn1c(NCc2ccc(N(C)C)cc2)nc2ccccc21`, for which the “hERG current change (%, negative = inhibition) at 10uM” value was -43.7%. The result for `Cc1nonc1OCCNCCNc1ccc([N+](=O)[O-])c2cccnc12` reads -52.2%; that for `C[C@]1(CC/C(=C/CO)CO)[C@H](CO)CC[C@@]23COC(=O)C2=CCC[C@@H]31`, 16.4%; that for `CCNC(=O)COC(=O)c1ccc(-c2nc3ccccc3s2)s1`, 4.16%. On to `O=C(OCCCOC(=O)c1ccc(O)cc1)c1ccc(O)cc1`, for which the “hERG current change (%, negative = inhibition) at 10uM” value is -17.3%.

In the case of `Cc1ccc(S(=O)(=O)N2CCCCC2)cc1NC(=O)CSc1ncccn1`, the “hERG current change (%, negative = inhibition) at 10uM” value is on record as -15.8%.

For `CN(C)C(=O)C[n+]1ccc(C(N)=O)cc1.[Cl-]`, the “hERG current change (%, negative = inhibition) at 10uM” value is given as 6.48%. The result for `CN(C)c1oc(-c2ccc(Cl)cc2)nc1S(=O)(=O)c1ccccc1` reads 3.14%.

With `CCCn1c(N)c(N(CCOC)C(=O)C2CCCC2)c(=O)[nH]c1=O`, the “hERG current change (%, negative = inhibition) at 10uM” value is -0.462%.

In the case of `CNC(=S)N1CCC(Cc2ccccc2)CC1`, the “hERG current change (%, negative = inhibition) at 10uM” value is -0.0992%. The value for `CCSc1oc(-c2cccs2)nc1S(=O)(=O)c1ccccc1` was 11.1%; that for `COc1ccccc1N1CCN(CCCNc2cc(=O)n(C)c(=O)n2C)CC1.Cl` was -12.7%; that for `O=C(N/N=C1\C2CN3CCN(C2)CC1(c1ccccc1)C3)c1ccc(F)cc1` was 2.31%. The result for `CCCC(CCC(=O)Nc1ccc(S(N)(=O)=O)cc1)C(=O)O` (stereo not drawn) reads 10.8%; that for `Cc1ccccc1OCC(=O)OCC(=O)NCc1cccs1`, 1.72%; that for `Cc1ccc(-c2cc(C(F)(F)F)n3ncc(C(=O)N4CCN(C)CC4)c3n2)cc1`, -7.6%.

Take `CC1c2ccccc2SC(CCCN(C)C)c2ccccc21.O=C(O)/C=C\C(=O)O` (stereo not drawn): the “hERG current change (%, negative = inhibition) at 10uM” value is -19.2%.

Turning to `COc1ccc(S(=O)(=O)Nc2cccc(/C=C/C(=O)O)c2)cc1`, the “hERG current change (%, negative = inhibition) at 10uM” value was found to be 9.65%. For the molecule `COc1ccc(CN(C)C(=O)c2cccc(NS(=O)(=O)c3ccccc3)c2)c(OC)c1`, the “hERG current change (%, negative = inhibition) at 10uM” value is reported as -8.5%.

On to `CS(=O)(=O)Nc1cccc(C2=NN(C(=O)c3ccco3)C(c3cccs3)C2)c1` (stereo not drawn), for which the “hERG current change (%, negative = inhibition) at 10uM” value is -59%. The value for `CC1=C([N+](=O)[O-])C(c2ccc(Cl)cc2)NC(=O)N1C` (stereo not drawn) was -11.5%; that for `Cc1noc(C)c1COC(=O)c1ccc(-c2nc3ccccc3s2)s1` was -2.33%.

For the origin of these results see publication PMC4336329 (PLoS ONE, 2015).
